Experimental data as given in a compilation of properties of binary mixtures (doi:10.1016/j.molliq.2020.112481).
Some of these densities may be calculated back from excess volumes.

Assay: xn = mol fraction of the nth substance listed
Conditions: 100 kPa

OCCO + CCCC[n+]1ccn(C)c1.O=S(=O)([O-])C(F)(F)F
x2 = 0
Conditions	mass density [kg/m3]
313.15 K	1099.1
323.15 K	1092

CCCC[n+]1ccn(C)c1.O=S(=O)([O-])C(F)(F)F + OCCO
mass density [kg/m3]
Conditions	x1 = 0.0926	x1 = 0.1936	x1 = 0.2985	x1 = 0.3912	x1 = 0.4999	x1 = 0.6055	x1 = 0.6922	x1 = 0.7966	x1 = 0.9035	x1 = 1
298.15 K	–	1195.2	1219.5	1234.9	1249.2	1260.9	–	1280	1289	1297.5
303.15 K	–	1191.8	1216	1231.3	–	1257.2	–	1276.2	1285.2	1293.5
308.15 K	1153.6	1188.5	–	1227.8	–	1253.5	–	–	1281.4	1289.5
313.15 K	1150.3	1185	–	1224.2	–	1249.8	–	1268.6	1277.6	1285.5
318.15 K	–	1181.6	1205.2	1220.6	–	1246.1	1254.8	1264.8	1273.8	1281.5
323.15 K	1143.6	–	1201.7	–	1230.8	1242.4	1251	–	1270	1277.5
